Reference: PMC4336329 (PLoS ONE, 2015)
Hit rate of the full screen: of about 310,000 compounds, about 2,200 (0.71%) showed an effect of 50% or more. The effect is printed as a negative number. The list shows a part of the results.

Each molecule was assayed against human ether-à-go-go-related gene (hERG) potassium channel (human, UniProt Q12809) (assay: primary screen, population patch clamp on CHO cells stably expressing hERG).
Chain of human ether-à-go-go-related gene (hERG) potassium channel (Q12809 whole entry, looked up): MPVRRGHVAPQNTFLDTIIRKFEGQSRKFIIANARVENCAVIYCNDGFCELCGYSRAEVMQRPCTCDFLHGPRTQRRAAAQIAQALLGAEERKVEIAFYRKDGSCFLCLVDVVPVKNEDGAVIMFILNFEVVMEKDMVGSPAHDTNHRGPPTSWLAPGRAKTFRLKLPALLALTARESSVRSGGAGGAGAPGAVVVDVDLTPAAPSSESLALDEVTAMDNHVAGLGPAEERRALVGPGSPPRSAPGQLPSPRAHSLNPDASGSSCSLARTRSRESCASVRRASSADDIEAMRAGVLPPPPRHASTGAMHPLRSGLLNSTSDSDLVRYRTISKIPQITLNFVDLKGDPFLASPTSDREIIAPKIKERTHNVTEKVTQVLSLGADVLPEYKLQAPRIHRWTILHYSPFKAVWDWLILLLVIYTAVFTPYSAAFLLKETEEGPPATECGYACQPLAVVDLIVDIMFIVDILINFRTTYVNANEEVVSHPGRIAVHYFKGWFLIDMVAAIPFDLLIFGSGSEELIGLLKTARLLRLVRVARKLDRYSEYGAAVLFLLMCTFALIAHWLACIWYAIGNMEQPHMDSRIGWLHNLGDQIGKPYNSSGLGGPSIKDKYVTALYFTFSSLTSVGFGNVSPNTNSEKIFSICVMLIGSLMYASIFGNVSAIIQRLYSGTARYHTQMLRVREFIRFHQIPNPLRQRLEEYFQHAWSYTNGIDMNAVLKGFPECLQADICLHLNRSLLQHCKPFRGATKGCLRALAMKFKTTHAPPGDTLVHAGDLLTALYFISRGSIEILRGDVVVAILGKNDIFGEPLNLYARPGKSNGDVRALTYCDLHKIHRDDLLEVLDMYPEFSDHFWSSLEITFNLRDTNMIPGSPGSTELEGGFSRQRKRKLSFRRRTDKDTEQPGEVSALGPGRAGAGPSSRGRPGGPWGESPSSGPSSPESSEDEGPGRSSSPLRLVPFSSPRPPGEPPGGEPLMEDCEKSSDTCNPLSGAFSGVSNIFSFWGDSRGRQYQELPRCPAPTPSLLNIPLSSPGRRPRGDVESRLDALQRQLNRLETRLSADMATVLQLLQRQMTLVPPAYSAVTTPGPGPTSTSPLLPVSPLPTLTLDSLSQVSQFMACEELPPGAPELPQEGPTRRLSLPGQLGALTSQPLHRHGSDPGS

SMILES	hERG current change (%, negative = inhibition) at 1uM
O=C(c1ccc(OC2CCN(C/C=C/c3ccc(F)cc3)CC2)cc1)N1CCCC1	-74.9%
CCOc1ccc(CCNC(=O)COC(=O)c2ccccc2O)cc1OCC	-1.08%
COc1ccc(NC(=O)COc2ccc(C)c(C)c2)cc1S(=O)(=O)N1CCCCC1	2.14%
CN(C(=O)CCc1nnc(CCCCc2ccccc2)o1)C1CCOCC1	7.66%
Cn1nnnc1SCC(=O)NNC(=O)c1ccc(Br)cc1	17.6%
CCc1ccc(N2C(=O)CN(CC(=O)OC)C2=S)cc1	17.4%
CC[N+](C)(C)Cc1ccccc1Br.Cc1ccc(S(=O)(=O)[O-])cc1	9.07%
O=[N+]([O-])c1ccccc1/C=C/CN1CCCCC1	3.97%
CC(C(=O)N1CCOCC1)c1ccccc1 (centres unmarked)	7.75%
CCC(C)C(=O)Nc1ccc(S(=O)(=O)N2CCCC2)cc1 (centres unmarked)	15.3%
Cc1[nH]c(C)c(S(=O)(=O)NCCc2ccccc2)c1C(=O)N1CCCCC1	7.49%
CC(/C=C/c1ccc2c(c1)OCO2)=N\NC(=O)c1cccc([N+](=O)[O-])c1	5.1%
NC(=O)[C@H](Cc1cc2ccccc2s1)NC(=O)[C@@H]1CC2(CC(c3cccc(NC(=O)[C@@H]4CCC(=O)N4)c3)=NO2)CN1C(=O)/C=C/c1c(F)cccc1Cl (some centres unmarked)	7.81%
O=C(COC(=O)CSc1ccc([N+](=O)[O-])cc1)NCc1cccs1	20.5%
CN(C)C(=O)N1CCC(C(=O)NCc2cccs2)CC1	6.44%
NS(=O)(=O)c1ccc(CCNC(=O)CCCC2=NS(=O)(=O)c3ccccc3N2)cc1	21.9%
Cc1ccc(C(=O)NNC(=O)C(C)Sc2nc(N)cc(N)n2)cc1 (centres unmarked)	1.28%
CC(C)c1cc(O)c(-c2ccccc2)c(=O)n1-c1ccc(Cl)cc1	12.1%
CC1C(=O)CC(c2ccccc2)N(C)C1c1ccccc1 (centres unmarked)	2.89%
CC12CN3CC(C)(CN(C1)C3c1ccc(Br)cc1)C2 (centres unmarked)	-9.19%
Cc1c(Cl)cccc1NC(=O)Nc1ccn(C)n1	5.82%
O=C(CCC(=O)N/N=C/c1cc(Cl)cc(Cl)c1O)NCc1ccccc1	18.2%
Fc1cccc(CSc2ccc(-c3ccco3)nn2)c1	8.16%

SMILES	hERG current change (%, negative = inhibition) at 1uM
Cc1ccc(S(=O)(=O)Cc2cc(F)c([N+](=O)[O-])cc2[N+](=O)[O-])cc1	13%
COc1cccc(NC(=O)CSc2nnc(-c3ccc(C)cc3)o2)c1	6.82%
Cc1cc(C)nc(NS(=O)(=O)c2ccc(NC(=O)c3ccc(S(=O)(=O)N4CCOCC4)cc3)cc2)n1	2.44%
COc1ccc(CCNC(=O)CCNS(=O)(=O)c2cccc3nonc23)cc1OC	7.22%
Cn1c(=O)[nH]c(=O)c2c1nc(SCC(O)CO)n2CCCc1ccccc1 (centres unmarked)	13%
O=C(O)CCNc1nc(C(F)(F)F)nc2ccccc12	16.4%
O=C(c1ccccc1F)c1cn(Cc2ccc(F)cc2)c2ccccc12	11.7%
S=c1[nH]nc(-c2ccc(Br)o2)n1Cc1ccccc1	7.85%
CCC(=O)N1CCc2cc(S(=O)(=O)NC(Cc3ccccc3)C(=O)O)ccc21 (centres unmarked)	18%
COc1ccc(-c2c(C#Cc3ccsc3)c3cc(Br)ccc3n2C)cc1	-6.65%
CCOc1ccc(CC(=O)Nc2c(C(=O)Nc3ccccc3)oc3ccccc23)cc1OCC	-0.0444%
Brc1ccccc1-n1nnc(-c2cnc3ccccc3c2)n1	12.7%
CN(C(=O)COC(=O)c1ccccc1OCc1ccc(F)cc1)C1CCS(=O)(=O)C1 (centres unmarked)	6.37%
Cc1cc(=O)[nH]c(SCc2cccc(F)c2)n1	16.8%
COc1ccc(CCNC(=O)c2c(C)cc(=O)oc2C)cc1OC	8.94%
COC(=O)c1sc(NC(=S)NNC(=O)c2c(Br)c(C)nn2C)c(C(=O)OC)c1C	10.4%
Cc1cccc(-c2n[nH]c(=S)n2Cc2ccccc2)c1	10.8%
Cc1nc2ccc(S(=O)(=O)NCC(=O)NCCN3CCCCCC3)cc2s1	20.4%
CCC1(c2ccccc2)NC(=O)N(CC(=O)N(C)CC(=O)Nc2cccc(OC)c2)C1=O (centres unmarked)	14%
C[N+]1(CCC(=O)c2ccccc2)CCCCC1.[I-]	7%
COc1ccc(CCNC(=S)NC(=O)c2cccc(Cl)c2)cc1OC	6.74%
CCOC(=O)c1ccc(N2C(=O)c3n[nH]c(C)c3C2c2ccc(OC)cc2OC)cc1 (centres unmarked)	-0.35%
Cc1c(Br)c(=O)oc2c(Br)c(O)ccc12	13.8%

SMILES	hERG current change (%, negative = inhibition) at 1uM
Cn1c2ccccc2c2cc(/C=N/NC(=O)c3ccc(O)cc3O)ccc21	6.69%
COc1ccc(NC(=O)CN(C)S(=O)(=O)c2ccc(Cl)cc2)c([N+](=O)[O-])c1	5%
COc1ccc2nc(NC(=O)C3CCCN(S(=O)(=O)c4cccs4)C3)sc2c1 (centres unmarked)	15.7%
CCCC(C)C(=O)Nc1ccc(NC(C)=O)cc1 (centres unmarked)	12.5%
Cn1c(=O)oc2cc(S(=O)(=O)NCCC(=O)NCCc3ccc(Cl)cc3)ccc21	-6.21%
COc1ccc(CN2CCCN(S(=O)(=O)c3ccc(Br)cc3)CC2)cc1	-75.6%
CCN(CC(=O)NC)S(=O)(=O)c1ccc(Br)cc1	12.4%
CCN(CC)C(=O)CSC1=C(C#N)C(c2ccco2)C(C(=O)OCCOC)=C(C)N1 (centres unmarked)	16.1%
Cc1nn(C(C)C(=O)N2CCOCC2)c(C)c1[N+](=O)[O-] (centres unmarked)	12%
CN(C)CCOc1ccccc1C(C)(C)C.O=C(O)C(=O)O	8.1%
O=C(NC1CCCC1)c1cc2nc(-c3ccccc3)cc(-c3ccccc3)n2n1	3.59%
CNC(=O)c1sccc1-n1cccc1	8.16%
CN1CC=C2C(C#N)=C(N)C(C#N)(C#N)C(c3ccncc3)C2C1 (centres unmarked)	7.1%
COc1ccc(CN(C)C(=O)c2cc(S(=O)(=O)N3CCCCCC3)ccc2OC)cc1OC	4.44%
Cn1cc(CN2CCN(Cc3ccccc3)CC2)c(-c2cccc(Cl)c2)n1	-4.71%
COc1cc(CC(C#N)(CO)c2nc3ccccc3[nH]2)ccc1OC(F)F (centres unmarked)	1.16%
COc1ccccc1C(O)P(=O)(OCC(C)C)c1ccc(N(C)C)cc1 (centres unmarked)	10.5%
CCCc1nnc(SCC(=O)Nc2ccc(OC)cc2)o1	19.3%
Cc1nn(C(=O)N2CCOCC2)c(C)c1CN1C(=O)c2ccccc2C1=O	1.67%
Cc1c(NC(=O)c2ccc3ncccc3c2)c(=O)n(-c2ccccc2)n1C	21.5%
Cc1ccc(C(C)C)c(OCCn2ccnc2C)c1.O=C(O)C(=O)O	2.68%
CCC1CCCCN1CCCNC(=O)Cn1nc(C)n2nc(-c3ccccc3)cc2c1=O (centres unmarked)	-8.24%
Cc1cccc(NC(=O)C2=C(O)c3ccccc3N(C)S2(=O)=O)c1	15.3%

SMILES	hERG current change (%, negative = inhibition) at 1uM
COc1ccccc1C1NC(=O)CS1 (centres unmarked)	0.249%
O=C(CCSc1nnc(-c2ccncc2)o1)Nc1ccccc1	5.86%
O=C(Nc1ccc(F)c(Cl)c1)C1CCCC1	22.5%
Fc1ccc(-c2cc(C(F)(F)F)nc(N3CCCCC3)n2)cc1	16.5%
CCn1c(SCC(=O)Nc2ccc3[nH]c(=O)[nH]c3c2)nc2ccccc21	13.9%
CC1C/C(=N\NC(=S)NCc2ccccc2)CC(C)(C)C1 (centres unmarked)	-6.95%
Cl.OCCCCNCc1ccc(OCc2ccccc2Cl)cc1	-2.14%
CC(=O)c1c(C)n(C2CCCCC2)c2ccc(O)cc12	5.3%
CC1CC(C)CN(C(=O)c2ccc3ncsc3c2)C1 (centres unmarked)	23%
CC(C)CC(OC(=O)c1nsc(Cl)c1Cl)C(=O)NCc1cccs1 (centres unmarked)	1.18%
COc1ccccc1NC(=O)CN1CCN(C(=O)c2ccco2)CC1	-0.396%
CCOc1ccc(NS(=O)(=O)c2cc(C(=O)N3CCC3)ccc2Cl)cc1	7.4%
CN(CC(=O)Nc1ccc(Cl)cc1)CC(=O)Nc1cccc2ccccc12	6.76%
COc1ccc(-n2c(O)cnc2Nc2nc(C)cc(C)n2)cc1OC	10.2%
Cc1cccc(NC(=S)NCc2ccco2)c1C	7.94%
CN(Cc1ccco1)S(=O)(=O)c1nnc(NC(=O)c2ccccc2Cl)s1	19.9%
N#C/C(=C(/O)COC(=O)c1ccc(O)cc1)c1nc2ccccc2[nH]1	11.9%
Cn1cnnc1SCC(=O)NC(=O)NCc1ccccc1	7.59%
COc1ccc(C2=CC(=O)C[C@H](c3ccc(F)cc3)C2)c(OC)c1	7.77%
O=C(Cc1ccccc1)Nc1ccc(NC(=O)c2ccccc2)c(Cl)c1	12.9%
